Reference: PubChem BioAssay AID504832 (National Center for Advancing Translational Sciences (NCATS), 2011)
Hit rate of the full screen: of about 310,000 compounds, about 18,000 (5.8%) were called active. The inconclusive results got no clear call from the source; some entries with a clear call stand among them for comparison. Calls come from the whole dose curve; as a rule, active = well fitted inhibition curve with a large enough effect; inconclusive = small, poorly fitted or top-dose-only effect, or another doubt; inactive = no such curve, though single readings can be large or run the other way. No potency is given beside an inconclusive call; the fits are too rough.

test: Primary qHTS for delayed death inhibitors of the malarial parasite plastid, 48 hour incubation; conditions: P. falciparum luciferase growth in erythrocytes; series mostly up to 28.7 µM; activity change, negative = inhibition: at the top concentration
Outline: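 Firefly luciferase activity from engineered P. falciparum reports growth; inhibitors lower the luminescent signal. Cultures contained 2% hematocrit erythrocytes at 0.1% final parasitemia.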
% is set by controls: 0 for no effect and ±100 for the full control effect; potency is the fitted concentration of half-maximal effect; tags give direction and shape of the fitted curve.

SMILES	activity change, negative = inhibition	Potency
O=C(NCCCN1CCOCC1)c1ccc(Sc2cccc(Cl)c2)c([N+](=O)[O-])c1	inactive: 2.83%	
COCCNc1nc(C)cc(-c2cc(-c3ccc(Cl)cc3)on2)n1	inactive: 46.4%	
COc1ccccc1Nc1nc(N)nc(CSC(=S)N2CC(C)CC(C)C2)n1 (stereo unspecified)		inconclusive [inhibitor, partial curve, poor fit]
CCNCCC(CCC(C)C)c1ccc2c(c1)OCO2 (stereo unspecified)		inconclusive [inhibitor, partial curve, poor fit]
CCc1ccc(NC(=O)CSc2nc(=O)n(CCCN3CCOCC3)c3c2CCCC3)cc1		active: 9.28 µM
CC(C)OCCCNC(=O)COCC(=O)Nc1ccc(OCCc2ccccc2)cc1		inconclusive [inhibitor, single point]
Cn1c(SCC(=O)NC2CCCCCC2)nnc1-c1cccs1		inconclusive [inhibitor, single point]
CC(=O)c1ccc(OC(C)C)c(CSC(=N)N)c1		inconclusive [inhibitor, single point]
CCOc1ccc(S(=O)(=O)N2CCN=C2Cc2ccccc2)cc1C	inactive: 3.8%	
COc1cc(NC(=O)c2cc3sccc3n2C)cc(OC)c1	inactive: 159%	
c1coc(-c2nnc3sc(-c4cccs4)nn23)c1	inactive: -6.32%	
Cn1cccc1C(=O)OCC(=O)NCc1ccc2c(c1)OCO2		inconclusive [inhibitor, partial curve, poor fit]
COc1ccc(CCNC(=O)COC(=O)c2cc(S(=O)(=O)NCc3ccccc3)ccc2O)cc1OC	inactive: -5.91%	
CCCCCCCn1c2c(c(=N)c3c1CCC3)CCCC2		active: 0.294 µM
O=C(Nc1ccc(Cl)cc1)c1cccc(NC2=NC3CS(=O)(=O)CC3S2)c1 (stereo unspecified)	inactive: 24.8%	
O=C(c1cc([N+](=O)[O-])ccc1N1CCN(S(=O)(=O)c2ccc(Cl)c(Cl)c2)CC1)N1CCOCC1		inconclusive [inhibitor, partial curve, poor fit]
COc1ccc(CCNc2oc(-c3ccco3)nc2C#N)cc1		inconclusive [inhibitor, single point]
O=C(CCN1C(=O)c2ccccc2C1=O)N1CCOCC1	inactive: -5.67%	
Cc1ccc(C)c(NC(=O)C(OC(=O)c2cnc(C)cn2)c2ccccc2)c1 (stereo unspecified)	inactive: 12%	
CCCCC1=CC2=C(c3ccco3)C(=O)C(C)(OC(=O)c3ccc(OC)cc3)C(=O)C2=CN1C1CCCCC1 (stereo unspecified)		inconclusive [inhibitor, single point]
CC(Sc1nnc(-c2ccccc2)c(-c2ccccc2)n1)C(=O)N1CCc2ccccc21 (stereo unspecified)	inactive: -26.9%	
CSCCOC(=O)COc1ccc(/C=N/NC(=O)c2nn(C)cc2Cl)cc1	inactive: 0%	
COC(=O)c1ccc(COC(=O)c2[nH]c(C)c(C(C)=O)c2C)o1	inactive: -9.25%	
COc1ccccc1NC(=O)N1CCCC1C(=O)Nc1ccc(NC(C)=O)cc1 (stereo unspecified)		inconclusive [inhibitor, full curve, poor fit]

SMILES	activity change, negative = inhibition	Potency
Cc1cc(C)c(C)c(S(=O)(=O)N2CCC(C(=O)N3CC(C)CC(C)C3)CC2)c1C (stereo unspecified)		inconclusive [inhibitor, single point]
C/C(=N\NC(=O)c1cc(C)nc2ccccc12)c1cccc(Cl)c1		inconclusive [inhibitor, partial curve]
Cc1cc(/C=C(\C#N)C(=O)NCc2cccs2)c(C)[nH]1	inactive: -23.8%	
CC(C)CC1NC(=O)N(CC(=O)N2c3ccccc3NC(=O)C2(C)C)C1=O (stereo unspecified)	inactive: 142%	
O=S(=O)(c1ccccc1)N1CCC(O)(CSc2ccc(F)cc2)CC1		inconclusive [inhibitor, single point]
CCc1cccc(C)c1NC(=S)N(CCOC)C(C)c1ccco1 (stereo unspecified)		inconclusive [inhibitor, single point]
CCCCn1c(NC(C)CC)nc2c1c(=O)[nH]c(=O)n2C (stereo unspecified)		inconclusive [inhibitor, partial curve, poor fit]
CC(=O)c1c(C)[nH]c(C(=O)CN2CCN(S(=O)(=O)c3ccc(C(C)C)cc3)CC2)c1C		active: 11.7 µM
O=P(c1ccccc1)(c1ccccc1)c1nc(-c2ccc(Cl)cc2)oc1N1CCOCC1		active: 10.4 µM
Cc1ccc2c(CN3CC=C(c4ccccc4)CC3)cc(=O)oc2c1C		active: 5.22 µM
CCOc1ccccc1NC(=O)N1CCCc2ccccc21	inactive: 2.4%	
CN(CC(=O)Nc1cccc(F)c1)C(=O)C1(c2ccccc2)CC1		inconclusive [inhibitor, single point]
CCOC(=O)c1ccc(NC(=O)c2c(NC(=O)CCC(=O)O)sc3c2CCCCC3)cc1		inconclusive [inhibitor, single point]
O=C(Nc1ccccn1)c1cc(-c2ccc(Cl)s2)nc2ccccc12		inconclusive [inhibitor, partial curve, poor fit]
COc1cccc(NC(=O)C2CCN(S(=O)(=O)c3ccc4c(c3)CC(C)N4C(C)=O)CC2)c1 (stereo unspecified)		inconclusive [inhibitor, partial curve]
COC(=O)C1=C(c2ccccc2OCc2ccccc2)C[C@@H]2CC[C@H]1N2C(=O)NCc1ccc(OC)cc1		active: 13.1 µM
COc1ccc(NS(=O)(=O)c2ccc3c(c2)NC(=O)C(C)S3)cc1 (stereo unspecified)		inconclusive [inhibitor, single point]
CC(C)(C)c1ccc(C(=O)NCCC(=O)Nc2cc(Cl)ccc2N2CCOCC2)cc1		active: 13.1 µM
Cc1ccc(NC2=C(N3CCOCC3)C(=O)c3ccccc3C2=O)cc1		active: 2.08 µM
c1ccc(COC2CCCN(Cc3nc(-c4cnccn4)no3)C2)cc1 (stereo unspecified)	inactive: 15.1%	
COc1ccc(CCC(=O)NCCS(=O)(=O)N2CCN(c3ccccc3)CC2)cc1		inconclusive [inhibitor, single point]
COC(=O)N/N=C/c1cccc(OC(=O)c2ccc3c(c2)OCO3)c1	inactive: 8.79%	
COc1cc(NC(=O)Cn2nc(C(F)(F)F)c(Br)c2C)cc([N+](=O)[O-])c1		inconclusive [inhibitor, single point]
O=C(c1ccc(Cn2cc([N+](=O)[O-])cn2)o1)N1CCCCCC1	inactive: -14.8%	

SMILES	activity change, negative = inhibition	Potency
COc1cc(C(c2c(C)[nH][nH]c2=O)c2c(C)[nH][nH]c2=O)cc([N+](=O)[O-])c1O		inconclusive [inhibitor, single point]
Cc1ccccc1NC(=S)NC(=O)c1cc(-c2ccccc2)nc2ccccc12		inconclusive [inhibitor, single point]
Cc1cccc(C)c1NC(=O)C(c1ccc([N+](=O)[O-])cc1)N1CCCCC1 (stereo unspecified)		inconclusive [inhibitor, single point]
COC(=O)c1ccc(C2=NOC(C)(c3nnc(Cc4ccccc4)o3)C2)cc1 (stereo unspecified)		inconclusive [inhibitor, single point]
CCC(C)(C)NC(=O)C(c1ccc(OC)cc1)N(CC1CCCO1)C(=O)CCC(=O)Nc1cc(C)on1 (stereo unspecified)		inconclusive [inhibitor, full curve, poor fit]
COc1ccc(CCNc2oc(COc3ccccc3Cl)nc2C#N)cc1OC		active: 8.28 µM
[O-]/[N+](=C\c1ccco1)c1ccc(Cl)cc1		inconclusive [inhibitor, partial curve]
Cc1cc(C(=O)N/N=C/c2ccc(-c3cccc(Br)c3)o2)n[nH]1		inconclusive [inhibitor, partial curve]
CCc1nc(N(CC)CC)c2oc3ccccc3c2n1		inconclusive [inhibitor, partial curve]
CCOC(=O)[C@H]1[C@H]2COc3ccc(Cl)cc3[C@@H]2N2C(=O)c3cc(F)ccc3NC(=O)[C@@]12C		inconclusive [inhibitor, single point]
Cc1cccc(NC(=O)Cc2coc3ccc4ccccc4c23)n1		inconclusive [inhibitor, single point]
Cc1oc2c(C)c3oc(=O)c(CCC(=O)N4C[C@H]5C[C@@H](C4)c4cccc(=O)n4C5)c(C)c3cc2c1C		inconclusive [inhibitor, single point]
COc1cc(C(=O)Nc2cc(-c3cn4cccnc4n3)ccc2C)cc(OC)c1OC	inactive: 18.1%	
CCc1cccc(CC)c1NC(=S)/C(=C(\[O-])c1ccc(Cl)s1)[n+]1ccccc1		inconclusive [inhibitor, single point]
Cc1ccc(Cn2c(=O)c3c(nc4n3CCCN4Cc3ccccc3)n(C)c2=O)cc1	inactive: -14.8%	
NNC(=S)Nc1cc(S(=O)(=O)N2CCOCC2)ccc1N1CCOCC1		inconclusive [inhibitor, single point]
COc1cc(C(=O)NCC(=O)NCCSc2ccc(Br)cc2)cc(OC)c1OC	inactive: 37.5%	
COCCn1c(-c2cccs2)csc1=Nc1cccnc1	inactive: -4.09%	
COc1cccc(NC(=O)Nc2cccn(Cc3ccc(C)cc3)c2=O)c1		inconclusive [inhibitor, partial curve, poor fit]
CCn1c(SCC(=O)Nc2ccc3c(c2)OCO3)nnc1C(C)C	inactive: 34.8%	
CC1(c2ccc(Cl)cc2)NC(=O)N(CC(=O)N2CCN(S(=O)(=O)c3ccccc3)CC2)C1=O (stereo unspecified)		inconclusive [inhibitor, partial curve, poor fit]
CCCc1nc2oc3c(NCC4CCCO4)ncnc3c2c2c1COC(C)(C)C2 (stereo unspecified)	inactive: -26.1%	
CCOC(=O)c1cn(-c2nc(-c3ccc(Cl)cc3)cs2)c2c(F)c(N3CC(C)OC(C)C3)c(F)cc2c1=O (stereo unspecified)		inconclusive [inhibitor, single point]
